Reference: the RNAGym collection of RNA variant scans (doi:10.1093/nar/gkz1192)
The source gives no read counts; variants with many changes may rest on few reads.

B1: CPEB3 Ribozyme (parent)
chain: UAACAGGGGGCCACAGCAGAAGCGUUCACGUCGCAGCCCCUGUCAGAUUCUGGUGAAUCUGCGAAUUCUGCUGUAUAUCUC

Variants of: B1
Assay: self-cleavage, relative activity (ratio to wild type); higher = more cleavage; in vitro, sequencing
Summary of the method: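 Relative activity was defined as the cleaved/total read fraction for a variant divided by the same fraction for the unmutated ribozyme. CPEB3 self-cleaving ribozyme libraries were made by rounds of error-prone PCR, barcoded, and transcribed in vitro with T7 RNA polymerase for 5 hours at 37°C, and cleavage ran through transcription plus a 15 min DNase I step before EDTA. Illumina sequencing of template-switched reverse transcripts gave the reads, and DNA sequencing mapped the barcodes. Averages come from three batches, using variants with at least 5 reads.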

Variant	self-cleavage
A13U C32U A64U C68U	0.04
A13U C32U G55A	0.16
A13U C34A A45U	0.17
A13U C34G U41C U54A U58C U72C U80C	0.05
A13U C37G U58C U78C	0.21
A13U C37U U43C U49G A56G	0.06
A13U C40U A57G	0.45
A13U C40U A64G A65U U74C	0.12
A13U C40U U48A C62U A75G	0.14
A13U C40U U51A U76C	0.88
A13U C62A U72A	0.33
A13U C62U U80C	0.26
A13U C79U U80C	1.46
A13U G19A G52U A64G	0.16
A13U G19A G52U U72A U76A	0.06
A13U G19A U31C G52U U60C	0.05
A13U G19C U41C A56G U69C U72A	0.15
A13U G19C U43C U49C A56U G61A A64U	0.04
A13U G19U G61U	0.08
A13U G19U U25C A64G	0.17
A13U G19U U26C C38G U41G U49C C62G	0.03
A13U G22A U41G U51C C71A	0.05
A13U G22C C44U U60A U76C U78C	0.12
A13U G22U U78A	0.17

Variant	self-cleavage
A13U G24A U25C U31C U41A U60G	0.05
A13U G24A U41C U80C	0.33
A13U G33C U49C U54C U58C U69A	0.06
A13U G33U U48C A57G C62U U72C	0.07
A13U G36A A57G	0.14
A13U G36A U54C U66A U67C	0.11
A13U G36A U54G	0.15
A13U G36A U58G	0.16
A13U G36U G73U	0.14
A13U G46U A56G A65U	0.13
A13U G52A U60C	0.66
A13U G53A A56G U72C	0.91
A13U U25A A28U G33A U69C U72C U76C	0.07
A13U U25A A45G	0.08
A13U U25A C29U A35G A45U U72A	0.05
A13U U25A G36U	0.16
A13U U25A U31C	0.06
A13U U25A U41A U54A U66C U74C	0.07
A13U U25A U54C	0.11
A13U U25C A28G	0.24
A13U U25C A28U U41C U43C U48C U51A	0.16
A13U U25C A35U U54C U60C	0.11
A13U U25C A45G U69A U78C	0.09
A13U U25C A56G A64G A77G	0.11

Variant	self-cleavage
A13U U25C A56G U69G	0.22
A13U U25C G30U U60A	0.06
A13U U25C U26C A35U	0.09
A13U U25C U26C G46A U60A A64G U74C	0.06
A13U U25C U26C U54A U69C U80C	0.1
A13U U25C U26G C39A U41C U60A U72C	0.03
A13U U25C U31A A65G	0.13
A13U U25C U41G	0.15
A13U U25C U48C	0.07
A13U U25C U49A U51A U74C U78C	0.2
A13U U25C U54A G63A U69C U76C	0.2
A13U U25C U69A	0.38
A13U U25C U72C	0.26
A13U U25C U80A	0.1
A13U U26A A28U A56G	0.63
A13U U26A A56U A65U	0.11
A13U U26A A57G C62A	0.19
A13U U26A G30A U76C	0.21
A13U U26A U31A A56G A75G	0.46
A13U U26A U41C	0.79
A13U U26A U43C	0.19
A13U U26A U43C G53U A57G	0.09
A13U U26A U48G U51A U58C G73A	0.18
A13U U26A U54A U78C	1.05

Variant	self-cleavage
A13U U26C A28U U54C A56U U60C U72A	0.1
A13U U26C A35G U43C	1.27
A13U U26C A56G	0.5
A13U U26C A56G A57G U60C	0.08
A13U U26C A64G U74C	0.45
A13U U26C A77U	0.7
A13U U26C C62G	0.11
A13U U26C G46C C71U	0.07
A13U U26C G53A A57G U74C	0.59
A13U U26C U31A U41C G52C	0.1
A13U U26C U41A U54C U69C U72A	0.09
A13U U26C U43A U69C U72C U74A U78A	0.06
A13U U26C U43C A45U	0.4
A13U U26C U48C U72C A75G	0.11
A13U U26C U49C C62G	0.1
A13U U26C U67A	0.14
A13U U26C U69C	0.12
A13U U26G A28G	0.15
A13U U26G U54C U66C U80C	0.07
A13U U31A A56G U60C	0.15
A13U U31A C39U G42A U43C U74C	0.13
A13U U31A G33A	0.19
A13U U31A G61A C68A	0.11
A13U U31A U43A A45C U51A	0.17

Variant	self-cleavage
A13U U31A U49A C68A	0.12
A13U U31C C40A C44U U69C	0.06
A13U U31C C44A A45G U60A	0.13
A13U U31C C44U	0.08
A13U U31C G33U U48C U72C	0.06
A13U U31C U41C U72C	0.86
A13U U31C U43C U49C U69C	0.06
A13U U31C U48C U49A	0.24
A13U U31C U49G U54C	0.31
A13U U31C U67C	0.28
A13U U31C U76C	1.17
A13U U31G A35U U54C U58C U78C	0.09
A13U U31G C68U U78A	0.75
A13U U31G U41G U43C U51A A56G G61A	0.12
A13U U41A A45G U60C	0.28
A13U U41A A56G	0.09
A13U U41A A64G	0.15
A13U U41A C62U	0.17
A13U U41A G52A U72A U78C	0.07
A13U U41A U43C U76A	0.06
A13U U41A U49A C62A U80C	0.25
A13U U41A U58C C71U A75U	0.06
A13U U41A U69A	0.14
A13U U41C A45C A56G A64G	0.16

Variant	self-cleavage
A13U U41C A47G C59U U76C	1.07
A13U U41C A47G U51A U72C	1.16
A13U U41C A57G	1.18
A13U U41C A65G U66A	0.29
A13U U41C A75G U78A	1.05
A13U U41C C44U U76A	0.26
A13U U41C C79U	1.23
A13U U41C U51A U69C	0.57
A13U U41C U51C A56G U60C U78A	0.28
A13U U41C U54C A65G	0.49
A13U U41C U58C	0.56
A13U U41C U67A	0.88
A13U U41C U67C	0.14
A13U U41G A65G	0.12
A13U U41G C68U A77U	0.09
A13U U43A A45G G61C U66C	0.12
A13U U43A A56U A64G	0.63
A13U U43A U51C	1.17
A13U U43A U58C U60A A75G	0.4
A13U U43A U72C	1.12
A13U U43C A45G	0.88
A13U U43C A56G	0.28
A13U U43C A64G A65G	0.19
A13U U43C A64G U66C	0.43

Variant	self-cleavage
A13U U43C U48C	0.08
A13U U43C U54A	0.91
A13U U43C U66C C68U	0.14
A13U U48C A56G A64G U80C	0.5
A13U U48C A57U U72C U78A	0.87
A13U U48C U54C A64G U74C	0.46
A13U U48C U54C U58A U60A U80C	0.07
A13U U48C U60A	0.14
A13U U48C U60C U72A	0.12
A13U U48C U78C	0.59
A13U U49A G63A U72A	0.34
A13U U49C A56G U78C	1.06
A13U U49C U54C	0.28
A13U U49C U54C U60C U72C	0.37
A13U U49C U58C U69C	0.11
A13U U49C U66C U69C	0.12
A13U U49C U74G	1.06
A13U U49C U78C	0.24
A13U U51A U72C	1.16
A13U U51C C79U	1.24
A13U U51C U54G	0.87
A13U U51G U54G U78C	0.7
A13U U54C A56U A77U	0.89
